# Laboratory results: the BET-seq Pho4 binding data (Le et al. 2018)
# The other results are listed elsewhere or left out. These are noisy estimates, calculated here from bound and input reads.
# Biological target: T1, Pho4 (S. cerevisiae) (UniProt P07270)
# T1 sequence: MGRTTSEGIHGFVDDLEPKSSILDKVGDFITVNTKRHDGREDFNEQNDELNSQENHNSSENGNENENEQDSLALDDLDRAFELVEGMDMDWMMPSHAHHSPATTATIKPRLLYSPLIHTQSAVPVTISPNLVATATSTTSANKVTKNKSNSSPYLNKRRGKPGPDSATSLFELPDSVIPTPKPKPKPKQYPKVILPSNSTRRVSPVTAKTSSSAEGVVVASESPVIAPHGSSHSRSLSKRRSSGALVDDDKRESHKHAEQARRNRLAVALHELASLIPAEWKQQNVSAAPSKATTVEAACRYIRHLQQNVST
# Assay: relative binding free energy (BET-seq); higher = weaker binding
# Conditions: reference: library average
row,Sequence,relative binding free energy [kcal/mol]
1,TTCGCCACGTGGTAGG,-0.12
2,AGGGGCACGTGCCTGA,-0.12
3,TGGTGCACGTGTGTGA,0.06
4,TTTATCACGTGTGTTA,0.15
5,GGTTTCACGTGGGGTT,0.28
6,ATGTACACGTGGATGT,0.1
7,AATTACACGTGGGGTG,-0.1
8,CGTTTCACGTGCGGGG,0.2
9,CGGCGCACGTGTATGT,0
10,ATTGTCACGTGGTCGG,-0.02
11,GGGAGCACGTGGGGTA,-0.16
12,TTCTTCACGTGTGTGA,0.43
13,GTTCACACGTGTGCGT,0.17
14,TTTAGCACGTGAGGCG,0.04
15,TTTGACACGTGGGCGA,-0.13
16,GTTATCACGTGCTTTT,0.22
17,TATAGCACGTGGTTAT,-0.14
18,TGGCGCACGTGGTTGT,-0.21
19,AAATGCACGTGAGTTT,0.11
20,AATGGCACGTGTGGAG,-0.03
21,ATTTGCACGTGGTGGC,-0.06
22,ATGGGCACGTGTCTAT,-0.25
23,AGTTTCACGTGTTGTC,0.26
24,TTTCGCACGTGAAGTG,0.18
25,CAGTTCACGTGGGCGA,0.21
26,TATATCACGTGGGTGG,0.03

row,Sequence,relative binding free energy [kcal/mol]
1,TGGTGCACGTGTACTG,-0.02
2,GGGATCACGTGATTAT,0.21
3,TACTGCACGTGTTGAG,-0.03
4,AACTTCACGTGGTTTG,0.19
5,TGAGTCACGTGCTTAG,0.21
6,TGACGCACGTGGAGGA,-0.1
7,ACTGGCACGTGGTGGG,-0.2
8,GATTTCACGTGTCAGG,0.3
9,TTAATCACGTGTATGC,0.03
10,ATATTCACGTGGGTCA,0.08
11,TTTGCCACGTGGTTCG,-0.03
12,TTATTCACGTGTCGTT,0.31
13,GGTAACACGTGAGGCG,0.38
14,TGTGCCACGTGTGAGA,0.01
15,ATTGGCACGTGGTTTT,-0.09
16,GCCTGCACGTGAAGGG,0.32
17,GTATGCACGTGCGGAT,-0.01
18,TCTCGCACGTGGAGGG,-0.11
19,TGCGTCACGTGGGTAT,-0.13
20,GGTTGCACGTGACGGC,0.11
21,TTCTTCACGTGCTGTT,0.14
22,GTGCTCACGTGGTCGG,0.05
23,TATGGCACGTGCTATG,-0.24
24,GTGATCACGTGTAGAA,0.23
25,AATGCCACGTGTTGGG,0
26,GTAAACACGTGTTTAA,0.08

row,Sequence,relative binding free energy [kcal/mol]
1,AGCTACACGTGTAGTT,0.16
2,TTAGTCACGTGATAGA,0.33
3,GGTACCACGTGTAGGT,0.12
4,GGGGACACGTGAAGGC,0.28
5,TGACTCACGTGATGTG,0.2
6,ACAGGCACGTGTTGTT,-0.12
7,ATCGACACGTGTTGGG,0.07
8,GGTACCACGTGGCGTG,-0.14
9,TTCTTCACGTGTAGTG,0.22
10,GGCAGCACGTGGTGGT,-0.02
11,CGGTTCACGTGTTTAA,0.37
12,CGGGACACGTGGGTGC,-0.2
13,TTAATCACGTGCGTGG,0.17
14,GATGGCACGTGGAAAA,0.25
15,TGAATCACGTGTGACG,0.14
16,GGGCGCACGTGCGGAA,-0.05
17,AGGGTCACGTGATATA,0.15
18,TTATTCACGTGAAATG,0.3
19,GGTGGCACGTGAGAGA,0.18
20,TAATACACGTGCTGGT,-0.01
21,ATGTACACGTGTGCAA,0.26
22,TAGGCCACGTGTTTTG,0.02
23,GTTAACACGTGGAGAG,0.1
24,ACTGTCACGTGATTTT,0.26
25,CTCTTCACGTGGTGTT,0.08
26,AAATTCACGTGGGTAT,0.16

row,Sequence,relative binding free energy [kcal/mol]
1,GTTATCACGTGGGGTT,0.14
2,ATTGACACGTGGGCAT,-0.22
3,CCTTGCACGTGGTTTT,-0.14
4,CTATTCACGTGCGTGT,0.18
5,TTGTGCACGTGATACT,0
6,TTTTACACGTGGAGCT,0.02
7,TAGCGCACGTGAGTGA,0.15
8,CTGGTCACGTGAATGG,0.41
9,AGTAACACGTGTTTGT,-0.11
10,AGTCGCACGTGTGGTG,0.13
11,CGTTCCACGTGGTAGG,-0.03
12,TGTTTCACGTGCAGTG,0.26
13,TACGTCACGTGTGGTT,0.09
14,GGCGGCACGTGGGGGG,-0.19
15,GGCCGCACGTGGGTGA,-0.19
16,TGCGGCACGTGACTGT,-0.06
17,AATAGCACGTGATTTG,-0.05
18,CGGTGCACGTGCGCGT,-0.1
19,AGTATCACGTGGTGAT,-0.02
20,CTGGACACGTGAGATT,0.4
21,TTTTCCACGTGGTAGG,0.03
22,CTTTGCACGTGGCGTA,-0.05
23,TGACGCACGTGGCATT,0.07
24,CGTGGCACGTGACGGA,0.16
25,GATTCCACGTGTGTGG,0.23
26,GTTGCCACGTGTAGTT,0.08

row,Sequence,relative binding free energy [kcal/mol]
1,GGACTCACGTGGTATT,0.1
2,TGTATCACGTGGAGCG,0.14
3,CTGGACACGTGGTTAT,0.02
4,CGTTTCACGTGGGCGT,0.29
5,GCCGGCACGTGTTGGG,0.02
6,GTTCACACGTGAGTGG,0.26
7,TTGAACACGTGTATCG,0.14
8,TAGTGCACGTGTACCG,0.09
9,CTAGACACGTGATGGG,0.22
10,AAGGGCACGTGGTTAT,-0.21
11,CTTGGCACGTGTTTTA,-0.1
12,GGTGTCACGTGGTTAG,0.07
13,ATCATCACGTGTGGGG,0.13
14,TGTATCACGTGTTCGC,0.19
15,CACTGCACGTGGGGGG,-0.29
16,TTGGTCACGTGTTTGA,0.09
17,GGTTGCACGTGATGTT,0.24
18,TAAGTCACGTGATAGT,0.18
19,GGTTTCACGTGGCGAG,0.34
20,GTATTCACGTGGTGCT,0.2
21,TTTTGCACGTGATGAC,0.17
22,GTTAACACGTGTTTTG,0.1
23,CGTGTCACGTGTGGAA,0.11
24,GTGCTCACGTGGAAGG,0.41
25,TTAGTCACGTGCGTAT,-0.04
26,ATGGACACGTGTAATG,0.11

row,Sequence,relative binding free energy [kcal/mol]
1,GGTAGCACGTGGTGCT,-0.18
2,TACGTCACGTGTAATG,0.09
3,GTGTTCACGTGTCGAA,0.36
4,TACTTCACGTGGTGTG,0.19
5,CGTGGCACGTGGCTGA,-0.15
6,TGTAGCACGTGGCGGG,-0.16
7,ATTGTCACGTGCGTTG,-0.05
8,CATATCACGTGTTAGG,0.14
9,TTGTTCACGTGGACGT,0.2
10,GTGTGCACGTGAACAT,0.25
11,GTCAACACGTGTTTGG,-0.02
12,GATTACACGTGTCGTG,0.21
13,TCGGGCACGTGGTCAT,-0.19
14,GTGGGCACGTGCATAG,-0.23
15,GCGGGCACGTGGGTGT,-0.25
16,TACGTCACGTGGAGTG,0.03
17,TGGGTCACGTGGCAAA,-0.01
18,TTCAGCACGTGAGATA,0.28
19,TTAAGCACGTGAGTAA,0.15
20,GGGTACACGTGAATTG,0.39
21,GCGGTCACGTGAGGTC,0.27
22,AATAGCACGTGTGAGT,-0.03
23,TGAAACACGTGGCGTT,-0.01
24,ATGCACACGTGGTTTT,0.06
25,TAGCGCACGTGGTGGT,-0.24
26,TTAGGCACGTGATATT,-0.02

row,Sequence,relative binding free energy [kcal/mol]
1,GGAAGCACGTGCTAGG,-0.16
2,AATGTCACGTGAACGG,0.18
3,GGTTTCACGTGGCAGG,0.32
4,TATAGCACGTGAAAGT,0.18
5,AATGACACGTGGTTTA,-0.05
6,CTTGACACGTGGTAGT,-0.03
7,TTTTACACGTGTAAAT,0.18
8,GGTGCCACGTGGCTGG,-0.23
9,GGATGCACGTGTTGAG,-0.1
10,TGTTACACGTGGTTTA,0.04
11,TATTTCACGTGGGTCG,0.19
12,TGACACACGTGGATTT,0.18
13,TTTGGCACGTGGCGCA,-0.14
14,ATTTTCACGTGCGGTG,0.32
15,GTTTGCACGTGCTTGG,0.07
16,CTTTTCACGTGAGAGG,0.38
17,AGGTGCACGTGTATAT,0.11
18,GCTGGCACGTGATGTG,-0.1
19,GGACTCACGTGTGTGC,0.35
20,TTTAACACGTGTATTC,0.02
21,AAGAGCACGTGGTAAG,-0.17
22,TTCAACACGTGGGGGA,-0.19
23,CGTTACACGTGGTGGG,-0.01
24,GATTACACGTGAGGTG,0.47
25,TGGATCACGTGGGAGT,0.02
26,TGATACACGTGGAAGG,0.24

row,Sequence,relative binding free energy [kcal/mol]
1,CCTTTCACGTGGAGGT,0.24
2,TAAGTCACGTGTTTGG,0.1
3,TGGTTCACGTGCTTCT,0.17
4,CGGAGCACGTGTAGGG,-0.06
5,GGGATCACGTGATAAG,0.37
6,TTGGGCACGTGATGCG,-0.01
7,CGATACACGTGTGAGT,0.22
8,ACTGTCACGTGTGCTG,0.08
9,GGGGGCACGTGACGTA,-0.01
10,AGTAACACGTGGGCGT,-0.19
11,AATATCACGTGTATTG,-0.05
12,GTAGTCACGTGTGCTG,0.09
13,GTTCGCACGTGATGGG,0.12
14,CATATCACGTGAGGTT,0.17
15,CGTAGCACGTGTGTTG,-0.05
16,TTTTGCACGTGACTTT,-0.01
17,GGTTACACGTGTTGCA,0.15
18,ATTGACACGTGTTTCG,0.03
19,GTAGGCACGTGGGGCA,-0.14
20,GCGGACACGTGGGGAG,-0.02
21,GATGTCACGTGGGGGC,0.12
22,TGATGCACGTGCAGGA,-0.05
23,GAGGTCACGTGTCGTA,0.21
24,TTTTTCACGTGTAAAA,0.27
25,TGATGCACGTGAGTTT,0.28
26,GTCTACACGTGGTGGG,0.15

row,Sequence,relative binding free energy [kcal/mol]
1,AGCGTCACGTGAGAGT,0.25
2,TCCGGCACGTGTAGGG,-0.08
3,TTGCTCACGTGAGTGA,0.28
4,TCGTACACGTGTTGGA,0.11
5,AATTTCACGTGGTTCA,0.31
6,AGTAGCACGTGGGACG,-0.13
7,TTTTACACGTGGTGCC,-0.03
8,TGCTACACGTGGGGAA,0.01
9,CTTGCCACGTGGGTTA,-0.24
10,GTTTCCACGTGTCGTT,0.14
11,TGTTGCACGTGCTCGG,-0.22
12,AGATACACGTGTAGTG,0.01
13,TGCCGCACGTGGAGGT,0.03
14,CAAGGCACGTGAAGGT,0.1
15,GTGGGCACGTGAAGCG,0.25
16,TGCCGCACGTGAAGGG,0.12
17,GCGTTCACGTGAGGGA,0.38
18,GTGTGCACGTGCTATA,-0.07
19,TTTGTCACGTGAGCTA,0.22
20,TGCAGCACGTGATTTT,0.06
21,TGCGTCACGTGTGGCT,0.18
22,ACGTGCACGTGTGGCT,-0.11
